Experimental data taken from PubChem BioAssay AID485294 (National Center for Advancing Translational Sciences (NCATS), 2010).
The campaign covered roughly 370,000 compounds. About 150 (0.041%) were called active. Inconclusive results, whose numbers are uncertain, are shown with a selection of clear calls. The call rests on the fitted dose curve; in most records, active means well fitted inhibition curve with a large enough effect; inconclusive means small, poorly fitted or top-dose-only effect; inactive means flat fitted curve, though single readings scatter. No potency is given beside an inconclusive call; the fits are too rough.

Target: Beta-lactamase (Escherichia coli (strain K12)) (UniProt P00811)
Experiment: qHTS Inhibitors of AmpC Beta-Lactamase (assay with detergent); further: nearly all actives have a fitted effect of over 25% in size
Conditions: AmpC hydrolysis of nitrocefin, absorbance 480 nm, 0.01% Triton; series mostly up to 114 µM
Method in brief: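 AmpC (5.3 nM in the dispensed reagent) in 20 mM phosphate pH 7.0 with 0.01% (detergent screen) or 0.0001% Triton X-100 was preincubated with compounds for 15 min at room temperature. Nitrocefin was then added from an 800 uM solution, and hydrolysis was followed at 480 nm.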
Potency means the concentration at half of the fitted maximal effect; tags describe the fitted curve by direction and shape.

Sequence of UniProt P00811 (P00811 whole entry, looked up): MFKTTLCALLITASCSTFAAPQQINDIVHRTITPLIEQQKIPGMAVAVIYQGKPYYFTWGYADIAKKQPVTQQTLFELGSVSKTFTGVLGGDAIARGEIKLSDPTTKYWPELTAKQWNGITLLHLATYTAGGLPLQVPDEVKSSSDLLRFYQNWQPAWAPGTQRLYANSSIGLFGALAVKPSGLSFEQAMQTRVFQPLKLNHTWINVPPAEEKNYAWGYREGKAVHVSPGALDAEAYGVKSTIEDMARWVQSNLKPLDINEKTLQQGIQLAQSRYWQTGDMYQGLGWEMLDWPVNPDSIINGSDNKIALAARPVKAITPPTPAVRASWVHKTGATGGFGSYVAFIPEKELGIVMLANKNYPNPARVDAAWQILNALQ

Structure (SMILES) | Potency
COC(=O)c1cc(=O)n(-c2ccccc2)c(=Nc2ccccc2)s1 | inconclusive [inhibitor, partial curve, poor fit]
O=C(CSc1nc2c([nH]c3ccccc32)c(=O)n1-c1ccccc1)N1CCc2ccccc21 | inactive
COC(=O)[C@@H]1Cc2c([nH]c3ccccc23)C(C)N1C(=O)c1ccccc1 (stereo not given in full) | inactive
Cc1ccc(S(=O)(=O)n2nc(-c3ccccc3)nc2NCc2ccc(Cl)cc2)cc1 | inactive
C/C(=N\NC(=O)c1cc(-c2cccc([N+](=O)[O-])c2)n[nH]1)c1ccccc1O | inconclusive [inhibitor, partial curve, poor fit]
CCC(=O)NC(=S)Nc1ccc(S(=O)(=O)N2CCN(C)CC2)cc1 | inconclusive [inhibitor, partial curve]
COc1ccc(-c2cc(C(=O)OC(C)C(=O)Nc3c(C)n(C)n(-c4ccccc4)c3=O)c3ccccc3n2)cc1 (stereo not given) | inactive
CCCOc1cccc(C2C(C(=O)c3ccc(C)o3)=C(O)C(=O)N2CCN2CCOCC2)c1 (stereo not given) | inconclusive [inhibitor, partial curve]
CCOC(=O)C1CCCN(C(=O)Cn2cnc3c2c(=O)n(C)c(=O)n3C)C1 (stereo not given) | inactive
O=C(O)c1cccc(N/N=C(\N=Nc2ccccc2)c2ccccc2)c1 | inconclusive [inhibitor, full curve]
CCOC(=O)C1CCN(C(=O)COc2cccc(C)c2)CC1 | inconclusive [inhibitor, partial curve]
O=C1c2cccc3cccc(c23)C(=O)N1c1nccs1 | inconclusive [inhibitor, full curve, poor fit]
CCCCSC1(SCCCC)N=C(N)C2(C#N)C(c3ccccc3)NC(C)=C(C)C12C#N (stereo not given) | inconclusive [inhibitor, partial curve, poor fit]
O=C(/C=C/c1ccc(Br)cc1)NC(=S)Nc1ccc(S(=O)(=O)Nc2nccs2)cc1 | inconclusive [inhibitor, full curve]
CC(C)C[C@H]1C(=O)N2CCC[C@H]2[C@]2(O)O[C@](NC(=O)[C@@H]3C=C4c5cccc6[nH]c(Br)c(c56)CC4N(C)C3)(C(C)C)C(=O)N12 (stereo not given in full) | inconclusive [inhibitor, single point]
Cc1ccccc1C(=O)N1CCN(S(=O)(=O)c2ccccc2)CC1 | inconclusive [inhibitor, full curve, poor fit]
CC(C)(O)C(=O)NNC(=S)NCc1ccco1 | inconclusive [inhibitor, full curve, poor fit]
COc1cc(NC(=O)CCc2c(C)nn(-c3ccc4nnc(C)n4n3)c2C)cc(OC)c1OC | inactive
CCOC(=O)c1c(N)sc2c(NC(C)=O)cccc12 | inactive
COc1ccc2[nH]c(=O)c(CN(C(=O)C3CCCO3)c3cccc(C)c3)cc2c1 (stereo not given) | inconclusive [inhibitor, partial curve, poor fit]
COc1ccc(N2CCN(C(=O)CCCC(=O)c3ccccc3)CC2)cc1 | inconclusive [inhibitor, full curve, poor fit]
COc1cccc(Nc2nc3ccccc3n3cnnc23)c1 | inconclusive [inhibitor, full curve, poor fit]

Structure (SMILES) | Potency
Cc1ccc(-c2nn(-c3ccccc3)cc2/C=C2\SC(=S)N(CCCCCC(=O)O)C2=O)o1 | inconclusive [inhibitor, single point]
CN1CCc2c(sc(NC(=O)CSc3ccccc3)c2-c2nc3ccccc3s2)C1 | inactive
CCNC(=O)C(=O)NCC1OCCCN1S(=O)(=O)c1cccs1 (stereo not given) | inconclusive [inhibitor, full curve]
CCC(=O)Nc1ccc(C(=O)CN2CCC(C)CC2)cc1 | inactive
COc1ccc(C2C(C#N)=C(SC)NC3=C2C(=O)CC(C)(C)C3)cc1 (stereo not given) | inconclusive [inhibitor, full curve, poor fit]
CCOC(=O)c1ccc(NC(=O)CSc2ccc3ccccc3n2)cc1 | inactive
C/C(=N/OC(=O)c1ccccc1)c1oc(C)nc1C | inactive
CCCC(=O)Nc1nnc(CCN2CCCCC2)s1 | inconclusive [inhibitor, full curve, poor fit]
COc1ccccc1NC(=O)CN(C)S(=O)(=O)c1ccc2c(c1)CCC(=O)N2 | inconclusive [inhibitor, full curve, poor fit]
Cc1cc(=O)oc2cc(OC(C)C(=O)Nc3ccc(N4CCOCC4)cc3)ccc12 (stereo not given) | inconclusive [inhibitor, full curve, poor fit]
CCCOc1cc(C)c(S(=O)(=O)N2CCN(C)CC2)cc1C | inconclusive [inhibitor, full curve]
Cc1nc2cc(NC(=O)NCc3ccccc3)ccc2o1 | inconclusive [inhibitor, single point]
Cc1cc(C(C)(C)C)cc(S(=O)(=O)NCCO)c1C | inconclusive [inhibitor, full curve, poor fit]
CCC(C)NC(=O)c1ccc(CSCc2cccc(F)c2)o1 (stereo not given) | inconclusive [inhibitor, full curve, poor fit]
COc1ccc(S(=O)(=O)Nc2cccnc2)c(C)c1C | inconclusive [inhibitor, full curve, poor fit]
CCOC(=O)C1CCN(c2ncnc3c2cnn3C)CC1 | inactive
O=C(NCc1cccc(Br)c1)c1cnn(-c2ccc(F)cc2)c1-n1cccc1 | inactive
CCNC(=O)CCc1nc(-c2ccc(C(C)(C)C)cc2)no1 | inconclusive [inhibitor, single point]
CC(C)(C)CC(=O)NCC(c1ccc2c(c1)OCO2)N1CCN(c2ccccc2)CC1 (stereo not given) | inactive
Cc1ccc(CN2C(=O)CSc3ccc(C(=O)NCCN4CCOCC4)cc32)cc1 | inactive
NC(=O)SCC(=O)Nc1ccccc1C(=O)O | inconclusive [inhibitor, single point]
COCc1c(C(=O)N/N=C/c2ccc(C)o2)nnn1-c1nonc1N | inconclusive [inhibitor, full curve, poor fit]

Structure (SMILES) | Potency
Cc1nc(N2CCC(C)CC2)c2c(C)c(C(=O)Nc3ccc4c(c3)OCCO4)sc2n1 | inconclusive [inhibitor, partial curve, poor fit]
Cc1nnc(Cn2cnc3c2c(=O)n(C)c(=O)n3C)o1 | inconclusive [inhibitor, full curve]
Cn1c(=O)[nH]c(=O)c2c1nc(N1CCCCCC1)n2CCCSc1nnnn1-c1ccccc1 | inconclusive [inhibitor, full curve, poor fit]
CC1CC(C)CN(S(=O)(=O)c2ccc(NC(=O)c3ccc(=O)[nH]c3)cc2)C1 (stereo not given) | inconclusive [inhibitor, full curve, poor fit]
CCOC(=O)c1ccc(N=CC2=C(O)CC(C)(C)CC2=O)cc1 | inconclusive [inhibitor, full curve]
Cc1ccc([N+](=O)[O-])cc1NC(=O)CNC1CCCCC1 | inconclusive [inhibitor, full curve, poor fit]
FC(F)(F)c1cc(C(F)(F)F)c2ccc(N3CCN(c4ncccn4)CC3)nc2n1 | inconclusive [inhibitor, full curve, poor fit]
O=C(NNC(=S)NC(=O)c1ccccc1Cl)c1cccc([N+](=O)[O-])c1 | inactive
CCc1cccc(NC(=O)CCNS(=O)(=O)c2cccc3nonc23)c1 | inconclusive [inhibitor, single point]
CCCCc1cc(=O)oc2cc(C)cc(OCC(=O)O)c12 | inconclusive [inhibitor, full curve]
CNC(=S)N(CCc1c(C)[nH]c2ccc(OC)cc12)Cc1cc(OC)c(OC)c(OC)c1 | inconclusive [inhibitor, partial curve, poor fit]
CC(C)n1cnc2cc(NCc3nc4ccccc4n3C)ccc21 | inconclusive [inhibitor, partial curve, poor fit]
CCCN1CCC(=O)N([C@H](CO)CC(C)C)CC1 | inconclusive [inhibitor, full curve, poor fit]
Nc1cccc(C(=O)OCC(=O)NC2CCCc3ccccc32)c1 (stereo not given) | inconclusive [inhibitor, full curve, poor fit]
O=C(C1CCCN1S(=O)(=O)c1cccc2cccnc12)N1CCn2c1nc1ccccc12 (stereo not given) | inconclusive [inhibitor, partial curve]
Cc1cccc(/C=N/NC(=O)c2ccc3c(c2)OCCO3)c1O | inactive
Nn1cnnc1N/N=C/c1cc(Br)cc(Br)c1O | inconclusive [inhibitor, partial curve, poor fit]
CCC1=NN2C(=N)/C(=C\c3cccn3-c3ccc(OC)cc3)C(=O)N=C2S1 | inconclusive [inhibitor, full curve]
COCCCn1c(C)cc(C(=O)CN2c3cccc4cccc(c34)S2(=O)=O)c1C | inactive
CC1(C)CC(=O)C2=C(C1)OC1=C(C(=O)CC(C)(C)C1)C2c1cc([N+](=O)[O-])cc([N+](=O)[O-])c1O | inconclusive [inhibitor, full curve, poor fit]
O=C(NC(=S)Nc1ccc(N2CCOCC2)cc1)c1cncc(Br)c1 | inconclusive [inhibitor, full curve, poor fit]
